The RNAGym collection of RNA variant scans (doi:10.1093/nar/gkz1192)
Read counts are not given, so values of variants with three or more changes are uncertain.

B1: CPEB3 Ribozyme (parent)
chain: UAACAGGGGGCCACAGCAGAAGCGUUCACGUCGCAGCCCCUGUCAGAUUCUGGUGAAUCUGCGAAUUCUGCUGUAUAUCUC

Variants of: B1
Experiment: self-cleavage, relative activity (ratio to wild type); higher = more cleavage; in vitro, sequencing
Method in brief: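 CPEB3 self-cleaving ribozyme mutant libraries were made by rounds of error-prone PCR, barcoded, and transcribed in vitro with T7 RNA polymerase for 5 hours at 37°C. Cleavage occurred during transcription and a 15 min DNase I step before EDTA stop. RNAs were reverse transcribed with template switching and Illumina-sequenced, with DNA sequencing mapping barcodes to variants. Relative activity is the variant's cleaved/total read fraction divided by wild type's (minimum 5 reads), averaged across three batches.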

| Variant | self-cleavage |
| --- | --- |
| UAACAGGGGGCCACAGCAGAAGCGUUCACGUCGCAGCCCCUGUCAGACUCUGGUGCAUCUGCGAUUUCUGCUGUAUGUCUC | 0.13 |
| UAACAGGGGGCCACAGCAGAAGCGUUCACGUCGCAGCCCCUGUCAGACUCUGGUGGAUCUGCGAAUUCUGCUGUAUUUCUC | 0.45 |
| UAACAGGGGGCCACAGCAGAAGCGUUCACGUCGCAGCCCCUGUCAGACUCUGGUGGAUCUGCGAAUUCUGCCGUAUAUCUC | 0.55 |
| UAACAGGGGGCCACAGCAGAAGCGUUCACGUCGCAGCCCCUGUCAGACUCUGGUGGAUCUGCGAAUUCUGCUGUAUAUCCC | 0.38 |
| UAACAGGGGGCCACAGCAGAAGCGUUCACGUCGCAGCCCCUGUCAGACUCUGGUGUAUCUGCGAAUUCUGCCGUAUAUCUC | 0.27 |
| UAACAGGGGGCCACAGCAGAAGCGUUCACGUCGCAGCCCCUGUCAGACUCUGGUGACCCUGCGAAUUCAGCUGUAUAUCUC | 0.23 |
| UAACAGGGGGCCACAGCAGAAGCGUUCACGUCGCAGCCCCUGUCAGACUCUGGUGACUCUGCGAAUUCCGCUGUAUAUCUC | 0.4 |
| UAACAGGGGGCCACAGCAGAAGCGUUCACGUCGCAGCCCCUGUCAGACUCUGGUGAGUCAGCGAAUUCUGCAGUAUAUCUC | 0.25 |
| UAACAGGGGGCCACAGCAGAAGCGUUCACGUCGCAGCCCCUGUCAGACUCUGGUGAGUCAGCGAAUUCUGCUGUAUAACUC | 0.99 |
| UAACAGGGGGCCACAGCAGAAGCGUUCACGUCGCAGCCCCUGUCAGACUCUGGUGAGUCUGCGAAUUCUGCAGUAUAUCUC | 0.75 |
| UAACAGGGGGCCACAGCAGAAGCGUUCACGUCGCAGCCCCUGUCAGACUCUGGUGAUUCUGCGUUUUCUGCUGUAUAUCUC | 0.19 |
| UAACAGGGGGCCACAGCAGAAGCGUUCACGUCGCAGCCCCUGUCAGACUCUGGUGAUUCUACGAAUUCUGCUGUAUAUCUC | 0.18 |
| UAACAGGGGGCCACAGCAGAAGCGUUCACGUCGCAGCCCCUGUCAGACUCUGGUGAAUCUGCGGAUCCUGCUGUAUAUCUC | 0.28 |
| UAACAGGGGGCCACAGCAGAAGCGUUCACGUCGCAGCCCCUGUCAGACUCUGGUGAAUCUGCGGAUUCUGCUGCAUAUCAC | 0.61 |
| UAACAGGGGGCCACAGCAGAAGCGUUCACGUCGCAGCCCCUGUCAGACUCUGGUGAAUCUGCGUAUUCUGCUAUAUAACUC | 0.68 |
| UAACAGGGGGCCACAGCAGAAGCGUUCACGUCGCAGCCCCUGUCAGACUCUGGUGAAUCUGCGAGUACUGCUGCAUACCUC | 0.26 |
| UAACAGGGGGCCACAGCAGAAGCGUUCACGUCGCAGCCCCUGUCAGACUCUGGUGAAUCUGCGAUUUCUGCCGUAUAUCUC | 0.16 |

| Variant | self-cleavage |
| --- | --- |
| UAACAGGGGGCCACAGCAGAAGCGUUCACGUCGCAGCCCCUGUCAGACUCUGGUGAAUCUGCGAAUUCUGCUGUUUAUCAC | 0.69 |
| UAACAGGGGGCCACAGCAGAAGCGUUCACGUCGCAGCCCCUGUCAGACUAUGGUGAAUCUGCGAAUUCUGCAGUAUAUCUC | 0.22 |
| UAACAGGGGGCCACAGCAGAAGCGUUCACGUCGCAGCCCCUGUCAGACUCUGGUGAAUCUGUGAGUUCUGCUGUAUAUCUC | 0.15 |
| UAACAGGGGGCCACAGCAGAAGCGUUCACGUCGCAGCCCCUGUCAGACUCUGGUGAAUCUGCGAAUUUUGCGGUAUAUCUC | 0.25 |
| UAACAGGGGGCCACAGCAGAAGCGUUCACGUCGCAGCCCCUGUCAGACUCUAGCGAAUCUGCGAAUUCUGCUGUAUAUCUC | 0.55 |
| UAACAGGGGGCCACAGCAGAAGCGUUCACGUCGCAGCCCCUGUCAGACUCUUGUGAAUCUGCGAGUUCUGCUGUAUACCUC | 0.2 |
| UAACAGGGGGCCACAGCAGAAGCGUUCACGUCGCAGCCCCUGUCAGACUCUGGUAAAUCUGCGAAUUCUGCUGUAUUUCUC | 0.25 |
| UAACAGGGGGCCACAGCAGAAGCGUUCACGUCGCAGCCCCUGUCAGACUCUGGUGAAUCUGCAAAUUCUGCAGUAUAUCUC | 0.27 |
| UAACAGGGGGCCACAGCAGAAGCGUUCACGUCGCAGCCCCUGUCAGACCCUGGAGAAUCUGCGAAUUCUGCUGUAUAUCUC | 0.32 |
| UAACAGGGGGCCACAGCAGAAGCGUUCACGUCGCAGCCCCUGUCAGACCCUGGUGAACCUGCGAAUUAUGCUGUAUAUCUC | 0.16 |
| UAACAGGGGGCCACAGCAGAAGCGUUCACGUCGCAGCCCCUGUCAGACUCAGGUAAAUCUGCGGUCUCUGCUGUAUACCUC | 0.24 |
| UAACAGGGGGCCACAGCAGAAGCGUUCACGUCGCAGCCCCUGUCAGACUCAGGUGAAUCUGCGAAUGCUGCUGUAUAUCUC | 0.17 |
| UAACAGGGGGCCACAGCAGAAGCGUUCACGUCGCAGCCCCUGUCAGACUCCGGUGUAUCAGCGAAUUCUGCUGUAUAUCAC | 0.12 |
| UAACAGGGGGCCACAGCAGAAGCGUUCACGUCGCAGCCCCUGUCAGACUCCGGUGAAUCUGCGCAUUCUGCUGUAUAUCUC | 0.19 |
| UAACAGGGGGCCACAGCAGAAGCGUUCACGUCGCAGCCCCUGUCAGACUCCGGUGAAUCUGCGAAUUCUGCUGUAUGUCUC | 0.69 |
| UAACAGGGGGCCACAGCAGAAGCGUUCACGUCGCAGCCCCUGUCAGACUCCGGUGAAUCUGCGAAUUCUGCUGUAUACCUC | 0.32 |
| UAACAGGGGGCCACAGCAGAAGCGUUCACGUCGCAGCCCCUGUCAGACUCUGGAGAAUCUGCGGAUCCUGCUGUAUAGCUC | 0.1 |
